Reference: publication PMC4336329 (PLoS ONE, 2015)
Among all 310,000 compounds or so, about 14,000 (4.5%) showed an effect of 50% or more. Effects have a minus sign here. This is one part of the list.

molecular target: human ether-à-go-go-related gene (hERG) potassium channel (human, UniProt Q12809); test: primary screen, population patch clamp on CHO cells stably expressing hERG
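Note: peak tail current of the secondary pulse compared with the same well before compound.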

Sequence of human ether-à-go-go-related gene (hERG) potassium channel (Q12809 whole entry, looked up): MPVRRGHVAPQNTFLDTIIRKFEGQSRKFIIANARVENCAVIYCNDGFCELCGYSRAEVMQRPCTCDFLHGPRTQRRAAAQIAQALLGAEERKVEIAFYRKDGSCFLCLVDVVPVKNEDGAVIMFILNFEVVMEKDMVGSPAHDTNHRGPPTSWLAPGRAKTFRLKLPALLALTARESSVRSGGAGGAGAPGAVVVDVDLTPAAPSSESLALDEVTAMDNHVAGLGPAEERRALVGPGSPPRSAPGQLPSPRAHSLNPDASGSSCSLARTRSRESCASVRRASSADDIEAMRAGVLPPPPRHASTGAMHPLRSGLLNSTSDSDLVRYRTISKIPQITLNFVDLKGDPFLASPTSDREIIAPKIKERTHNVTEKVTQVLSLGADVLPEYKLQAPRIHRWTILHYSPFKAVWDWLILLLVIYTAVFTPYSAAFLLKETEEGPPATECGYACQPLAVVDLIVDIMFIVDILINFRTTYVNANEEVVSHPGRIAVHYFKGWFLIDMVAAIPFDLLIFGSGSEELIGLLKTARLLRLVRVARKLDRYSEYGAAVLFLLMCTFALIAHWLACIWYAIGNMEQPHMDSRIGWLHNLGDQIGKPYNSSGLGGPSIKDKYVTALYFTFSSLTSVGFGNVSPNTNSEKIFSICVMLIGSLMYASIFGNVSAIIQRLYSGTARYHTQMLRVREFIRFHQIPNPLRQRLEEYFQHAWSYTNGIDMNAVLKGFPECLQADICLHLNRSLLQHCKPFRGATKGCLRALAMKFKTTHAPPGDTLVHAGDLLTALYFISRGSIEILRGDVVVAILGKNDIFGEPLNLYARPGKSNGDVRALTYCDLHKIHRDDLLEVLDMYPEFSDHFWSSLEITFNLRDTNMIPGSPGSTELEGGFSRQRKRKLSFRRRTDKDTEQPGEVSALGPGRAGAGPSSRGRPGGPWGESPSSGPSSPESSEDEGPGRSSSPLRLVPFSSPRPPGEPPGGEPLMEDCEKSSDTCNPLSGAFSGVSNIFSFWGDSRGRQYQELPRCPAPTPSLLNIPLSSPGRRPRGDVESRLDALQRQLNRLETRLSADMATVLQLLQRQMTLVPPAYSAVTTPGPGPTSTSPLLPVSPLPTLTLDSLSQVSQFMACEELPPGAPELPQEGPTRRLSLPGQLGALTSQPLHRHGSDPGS

Going from `COc1ccc(NC(=O)CSc2nncn2C)c([N+](=O)[O-])c1` to `COc1ccc(-c2nn(CCC(=O)O)cc2/C=C/C(=O)O)cc1[N+](=O)[O-]`, the “hERG current change (%, negative = inhibition) at 10uM” value rises from 1.55% to 5.53%.

First: N#Cc1ccc(COC(=O)c2ccccn2)cc1
Second: COC(=O)c1ccccc1CSc1nsc(C)c1C#N
The “hERG current change (%, negative = inhibition) at 10uM” value of the first is lower: -8.75% for the first, 18.4% for the second.

Going from `Cc1ccc(S(=O)(=O)NNC(=O)Nc2ccc(Cl)cc2)cc1` to `COc1ccc(NC(=O)Nc2ccc3oc(C)nc3c2)cc1`, the “hERG current change (%, negative = inhibition) at 10uM” value rises from 6.38% to 9.73%.

Compared with `CCOc1ccccc1NC(=O)COC(=O)CC(NC(N)=O)c1ccc(Cl)cc1` (stereo not drawn), `COCCNC(=O)c1ccccc1NC(=O)c1ccc(Cl)c(S(=O)(=O)Nc2ccc(C)cc2C)c1` is higher in “hERG current change (%, negative = inhibition) at 10uM” value: -68.4% for the first, -11.7% for the second.

Compared with `Cc1cc(NC(=O)c2c(-c3ccccc3Cl)noc2C)no1`, `Cc1noc(C)c1C(=O)Nc1nc(-c2ccc([N+](=O)[O-])cc2)cs1` is lower in “hERG current change (%, negative = inhibition) at 10uM” value: 5.88% for the first, -1.58% for the second.

First: Cc1cccc(-c2nc3ccccc3c(=O)n2NC(=O)/C=C/c2ccc([N+](=O)[O-])cc2)c1
Second: CCOc1cccc(-c2cc(C(=O)Nc3ccon3)c3ccccc3n2)c1
The “hERG current change (%, negative = inhibition) at 10uM” value of the first is lower: -60.7% for the first, 14.5% for the second.

Going from `O=[N+]([O-])c1ccc(-[n+]2ccc3ccccc3c2)c([N+](=O)[O-])c1.[Cl-]` to `O=C(NCCc1ccccc1F)C1CCCN1S(=O)(=O)c1ccc2ccccc2c1` (stereo not drawn), the “hERG current change (%, negative = inhibition) at 10uM” value falls from -4.13% to -23.1%.

Compared with `COC(=O)c1sccc1NC(=O)CC1C(=O)NCCN1C(=O)Nc1ccc(C(F)(F)F)cc1` (stereo not drawn), `COc1cc(/C=C(\NC(C)=O)C(=O)Nc2ccc(NC(C)=O)cc2)ccc1OC(C)=O` is lower in “hERG current change (%, negative = inhibition) at 10uM” value: 5.76% for the first, 4.55% for the second.

First: CCCCOc1nc2ccccc2nc1C(C#N)C(=O)NC1CCCCC1 (stereo not drawn)
Second: Cc1cc(C)cc(OCC(=O)Nc2ccc(N3CCCCC3)cc2)c1
The “hERG current change (%, negative = inhibition) at 10uM” value of the first is lower: 11.4% for the first, 17.1% for the second.

First: CC#CCNCc1ccccc1
Second: CCCCC(=O)NC(=S)NNC(=O)CCc1ccccc1
The “hERG current change (%, negative = inhibition) at 10uM” value of the first is higher: 10.7% for the first, 6.18% for the second.

Compared with `Cc1cc(Br)cc(Br)c1OCC(=O)NNC(=O)Nc1ccccc1`, `CC(=O)c1ccc2noc(-c3ccccc3)c2c1` is lower in “hERG current change (%, negative = inhibition) at 10uM” value: 5.27% for the first, 0.248% for the second.

Compared with `CN(C)S(=O)(=O)c1ccc(N2CCCC2)c(C(=O)OCC(=O)N2CCN(c3ccccc3)CC2)c1`, `Cc1ccc(S(=O)(=O)N2CCN(Cc3cc(=O)n4ccccc4n3)CC2)c(C)c1` is lower in “hERG current change (%, negative = inhibition) at 10uM” value: -12.5% for the first, -80.6% for the second.

Compared with `CCOC(=O)c1cnc(SC2CC(=O)N(c3ccc(OC)c(OC)c3)C2=O)nc1N` (stereo not drawn), `COc1cc2c(cc1OC)CN(C(=O)c1cc3ccccc3oc1=O)CC2` is higher in “hERG current change (%, negative = inhibition) at 10uM” value: -10% for the first, 20% for the second.

First: Cc1ccsc1/C=C1/SC(N2CCOCC2)=NC1=O
Second: CN(C)CCNC(=O)C(=O)Nc1cc2c3c(c1)CCC(=O)N3CCC2
The “hERG current change (%, negative = inhibition) at 10uM” value of the first is lower: -9.35% for the first, 13.7% for the second.

First: COc1cccc(/C=N/NC(=O)c2cc(C34CC5CC(CC(C5)C3)C4)[nH]n2)c1
Second: COc1ccc(NC(C)=O)cc1C#N
The “hERG current change (%, negative = inhibition) at 10uM” value of the first is lower: -16.5% for the first, 19.3% for the second.

First: CC1CCN(CCc2nc3cc(NC(=O)C(C)C)ccc3n2C)CC1
Second: Cc1cc([N+](=O)[O-])nn1CC(=O)NC(C)c1ccccc1 (stereo not drawn)
The “hERG current change (%, negative = inhibition) at 10uM” value of the first is lower: -0.549% for the first, 18.8% for the second.

First: CCc1ccccc1NC(=O)/C(=C/c1ccco1)c1ccccc1
Second: O=C(O)CCn1cc(C2CC(c3ccccc3)=NN2c2ccccc2)c(-c2ccccc2)n1 (stereo not drawn)
The “hERG current change (%, negative = inhibition) at 10uM” value of the first is lower: -14.3% for the first, 63.4% for the second.

First: COc1ccc(CCN=C(N)NS(=O)(=O)c2ccc(F)cc2)cc1OC
Second: COc1ccc(/C=C2\SC(=S)N(CCCC(=O)Nc3cccc(C(=O)O)c3)C2=O)cc1OC
The “hERG current change (%, negative = inhibition) at 10uM” value of the first is lower: 3.82% for the first, 12.5% for the second.

Compared with `CCN(CCCNC(=O)c1c(C)cc(=O)oc1C)c1ccccc1`, `CCC(C)n1nnc2c(=O)oc3ccccc3c21` (stereo not drawn) is higher in “hERG current change (%, negative = inhibition) at 10uM” value: -52.7% for the first, -10.7% for the second.

Going from `O=c1[nH]c(=O)n(Cc2ccco2)c2c1C(C(F)(F)F)(C(F)(F)F)N=C(CCC1CCCCC1)N2` to `Cl.Clc1ccc(CN2C3=NCCCN3c3ccccc32)c(Cl)c1`, the “hERG current change (%, negative = inhibition) at 10uM” value falls from -6.13% to -66%.

Going from `CCCOc1ccc(Cc2c(Cl)nc(SC)nc2OC)cc1` to `COc1ccccc1-c1c(C(F)(F)F)oc2c(CN(C)C)c(O)ccc2c1=O`, the “hERG current change (%, negative = inhibition) at 10uM” value falls from 18.9% to 10.9%.
